A collection of fitness landscapes (doi:10.1126/science.1257360)
The list shows a part of the results.

B1: PhoQ; a variant is named by its letters at X, in order, P23837 (parent)
chain: MKKLLRLFFPLSLRVRFLLATAAVVLVLSLAYGMVALIGYSVSFDKTTFRLLRGESNLFYTLAKWENNKLHVELPENIDKQSPTMTLIYDENGQLLWAQRDVPWLMKMIQPDWLKSNGFHEIEADVNDTSLLLSGDHSIQQQLQEVREDDDDAEMTHSVAVNVYPATSRMPKLTIVVVDTIPVELKSSYMVWSWFIYVLSANLLLVIPLLWVAAWWSLRPIEALAKEVRELEEHNRELLNPATTRELTSLVRNLNRLLKSERERYDKYRTTLTDLTHSLKTPLXXLQXXLRSLRSEKMSVSDAEPVMLEQISRISQQIGYYLHRASMRGGTLLSRELHPVAPLLDNLTSALNKVYQRKGVNISLDISPEISFVGEQNDFVEVMGNVLDNACKYCLEFVEISARQTDEHLYIVVEDDGPGIPLSKREVIFDRGQRVDTLRPGQGVGLAVAREITEQYEGKIVAGESMLGGARMEVIFGRQHSAPKDE

Variants of: B1
Test: enrichment ratio after two sorts for PhoP signalling (ratio (wild type AVST 3.29)); higher = more functional
Conditions: with PhoP (E. coli)

Row | Variant | enrichment ratio
1 | FAWE | ≤ 0.25
2 | VAYP | ≤ 0.25
3 | KCVA | ≤ 0.25
4 | SGNE | ≤ 0.25
5 | KFDD | ≤ 0.25
6 | TQRF | ≤ 0.25
7 | FPTH | ≤ 0.25
8 | QYRT | ≤ 0.25
9 | EYKR | ≤ 0.25
10 | NYGD | ≤ 0.25
11 | QCTG | ≤ 0.25
12 | GCMA | 1.39
13 | NYHF | ≤ 0.25
14 | LDTK | ≤ 0.25
15 | CFRY | ≤ 0.25
16 | PTMM | ≤ 0.25
17 | LHLG | ≤ 0.25
18 | KIGS | ≤ 0.25
19 | WCLN | ≤ 0.25
20 | ALWQ | ≤ 0.25
21 | LCGR | ≤ 0.25
22 | HKDD | ≤ 0.25
23 | VPDL | ≤ 0.25
24 | SWTN | ≤ 0.25

Row | Variant | enrichment ratio
25 | SQPH | ≤ 0.25
26 | KLHV | ≤ 0.25
27 | META | ≤ 0.25
28 | VHRR | ≤ 0.25
29 | MKTF | ≤ 0.25
30 | SSWN | ≤ 0.25
31 | NYGY | ≤ 0.25
32 | WWLM | ≤ 0.25
33 | PSNQ | ≤ 0.25
34 | SQFN | ≤ 0.25
35 | VCVE | ≤ 0.25
36 | SLIK | ≤ 0.25
37 | AQMW | ≤ 0.25
38 | NGPN | ≤ 0.25
39 | MLNF | ≤ 0.25
40 | TGKN | ≤ 0.25
41 | EIIP | ≤ 0.25
42 | ATKR | ≤ 0.25
43 | QQFV | 3.62
44 | EEYI | ≤ 0.25
45 | LMMG | ≤ 0.25
46 | SWGI | ≤ 0.25
47 | VWFI | ≤ 0.25
48 | DYHL | ≤ 0.25

Row | Variant | enrichment ratio
49 | REPW | ≤ 0.25
50 | IAPT | ≤ 0.25
51 | KPLY | ≤ 0.25
52 | TCAP | ≤ 0.25
53 | PAVC | ≤ 0.25
54 | NAYE | ≤ 0.25
55 | KTNR | ≤ 0.25
56 | IPTP | ≤ 0.25
57 | DPIS | ≤ 0.25
58 | MNCW | ≤ 0.25
59 | TNYK | ≤ 0.25
60 | DNFT | ≤ 0.25
61 | HVLP | ≤ 0.25
62 | RVGV | ≤ 0.25
63 | TASH | 11.7
64 | WLQK | ≤ 0.25
65 | NYAP | ≤ 0.25
66 | KNFG | ≤ 0.25
67 | QGLF | 1.25
68 | TFIN | ≤ 0.25
69 | PGKG | ≤ 0.25
70 | VSVQ | ≤ 0.25
71 | LEPI | ≤ 0.25
72 | ICSG | ≤ 0.25

Row | Variant | enrichment ratio
73 | SNPP | ≤ 0.25
74 | HTFN | ≤ 0.25
75 | SQRG | 0.463
76 | DWSL | ≤ 0.25
77 | WYVP | ≤ 0.25
78 | YAAE | ≤ 0.25
79 | NWSD | ≤ 0.25
80 | MTIM | 25.3
81 | YNLD | ≤ 0.25
82 | YLGC | ≤ 0.25
83 | EQRR | ≤ 0.25
84 | RARF | ≤ 0.25
85 | GMHA | ≤ 0.25
86 | TSRL | ≤ 0.25
87 | NFGC | ≤ 0.25
88 | YKCI | 0.57
89 | IQYW | ≤ 0.25
90 | EICW | ≤ 0.25
91 | QMCH | ≤ 0.25
92 | YKVG | 1.94
93 | LNRW | ≤ 0.25
94 | WRMG | ≤ 0.25
95 | MAGL | 8.15
96 | ASIT | 9.21

Row | Variant | enrichment ratio
97 | RLYP | ≤ 0.25
98 | FVRR | ≤ 0.25
99 | PGPG | ≤ 0.25
100 | HNNL | ≤ 0.25
101 | LCPV | ≤ 0.25
102 | SWGT | ≤ 0.25
103 | KMGH | ≤ 0.25
104 | LDVQ | ≤ 0.25
105 | NQHD | ≤ 0.25
106 | ICTF | ≤ 0.25
107 | KVNF | ≤ 0.25
108 | LICI | ≤ 0.25
109 | HFWD | ≤ 0.25
110 | YCPG | ≤ 0.25
111 | IMEM | ≤ 0.25
112 | IPHN | ≤ 0.25
113 | YFME | ≤ 0.25
114 | TEIC | 2.01
115 | RCLL | 0.331
116 | TRHA | ≤ 0.25
117 | HLYN | ≤ 0.25
118 | AKHG | ≤ 0.25
119 | PMWS | ≤ 0.25
120 | PTAY | ≤ 0.25

Row | Variant | enrichment ratio
121 | VDGQ | ≤ 0.25
122 | VQYL | ≤ 0.25
123 | YGLR | ≤ 0.25
124 | QSTV | 0.636
125 | WFYW | ≤ 0.25
126 | HKRS | ≤ 0.25
127 | AQTK | ≤ 0.25
128 | FFML | ≤ 0.25
129 | MHAM | ≤ 0.25
130 | TCCF | 7.22
131 | PDRV | ≤ 0.25
132 | ICIN | ≤ 0.25
133 | HYCF | ≤ 0.25
134 | IGVL | ≤ 0.25
135 | GFWQ | ≤ 0.25
136 | EPFM | ≤ 0.25
137 | NDSQ | ≤ 0.25
138 | RMIW | ≤ 0.25
139 | FQFV | ≤ 0.25
140 | PKNC | ≤ 0.25
141 | GACR | ≤ 0.25
142 | ADIQ | 21.4
143 | AEQY | 17.1
144 | HYGE | ≤ 0.25

Row | Variant | enrichment ratio
145 | SPVD | ≤ 0.25
146 | GGTS | ≤ 0.25
147 | ECQG | ≤ 0.25
148 | GSSI | 14.1
149 | PACN | ≤ 0.25
150 | FFMH | ≤ 0.25
151 | EYTY | ≤ 0.25
152 | SRLS | ≤ 0.25
153 | YPNA | ≤ 0.25
154 | AYMN | ≤ 0.25
155 | ENIV | ≤ 0.25
156 | PFTS | ≤ 0.25
157 | RMTT | ≤ 0.25
158 | VNLP | ≤ 0.25
159 | TPFG | ≤ 0.25
160 | IAIV | ≤ 0.25
161 | GSQF | ≤ 0.25
162 | MSDW | ≤ 0.25
163 | DGLK | ≤ 0.25
164 | QGQR | ≤ 0.25
165 | VHWN | ≤ 0.25
166 | QVGG | 2.44
167 | YDDA | ≤ 0.25
168 | PINF | ≤ 0.25

Row | Variant | enrichment ratio
169 | TEHQ | 0.877
170 | RGDV | ≤ 0.25
171 | LMWH | ≤ 0.25
172 | MPCH | ≤ 0.25
173 | SYFA | ≤ 0.25
174 | LGRQ | ≤ 0.25
175 | YSVE | ≤ 0.25
176 | EVCA | ≤ 0.25
177 | FPGQ | ≤ 0.25
178 | GLYP | ≤ 0.25
179 | SGSA | 7.85
180 | ADDF | ≤ 0.25
181 | IRTI | ≤ 0.25
182 | MRTC | ≤ 0.25
183 | FAVF | ≤ 0.25
184 | TCWD | ≤ 0.25
185 | SRCH | 2.77
186 | IRWQ | ≤ 0.25
187 | VNCL | 4.33
188 | NGPR | ≤ 0.25
189 | GEFR | ≤ 0.25
190 | SRDP | ≤ 0.25
191 | MSDL | ≤ 0.25
192 | MAIS | ≤ 0.25

Row | Variant | enrichment ratio
193 | TMFL | ≤ 0.25
194 | RDVI | ≤ 0.25
195 | LPNE | ≤ 0.25
196 | ANKW | ≤ 0.25
197 | IQSF | ≤ 0.25
198 | CMRL | ≤ 0.25
199 | IFYK | ≤ 0.25
200 | NEFN | ≤ 0.25
201 | KTPG | ≤ 0.25
202 | VTMF | 1.14
203 | LKIM | ≤ 0.25
204 | KCHK | ≤ 0.25
205 | LPAG | ≤ 0.25
206 | KIEA | ≤ 0.25
207 | ILLC | ≤ 0.25
208 | NTTW | ≤ 0.25
209 | NRGP | 0.361
210 | QWLW | ≤ 0.25
211 | LTKS | ≤ 0.25
212 | PLGW | ≤ 0.25
213 | KQWP | ≤ 0.25
214 | MTRD | ≤ 0.25
215 | VHTD | ≤ 0.25
216 | KAMV | ≤ 0.25

Row | Variant | enrichment ratio
217 | YQTH | ≤ 0.25
218 | HQFC | ≤ 0.25
219 | LFGR | ≤ 0.25
220 | GYRM | ≤ 0.25
221 | IWGT | ≤ 0.25
222 | LEHW | ≤ 0.25
223 | AKAP | ≤ 0.25
224 | TGCR | ≤ 0.25
225 | YFAD | ≤ 0.25
226 | LPWW | ≤ 0.25
227 | SEMS | 14.3
228 | TPMW | ≤ 0.25
229 | IPAE | ≤ 0.25
230 | LRYT | ≤ 0.25
231 | ICWF | ≤ 0.25
232 | AERH | ≤ 0.25
233 | EGLM | ≤ 0.25
234 | GAWR | ≤ 0.25
235 | ANHM | ≤ 0.25
236 | VCMP | ≤ 0.25
237 | IHII | ≤ 0.25
238 | HCKG | ≤ 0.25
239 | YAIY | ≤ 0.25
240 | HDLD | ≤ 0.25

Row | Variant | enrichment ratio
241 | DCPT | ≤ 0.25
242 | NTLH | ≤ 0.25
243 | AKFF | ≤ 0.25
244 | NDLW | ≤ 0.25
245 | GIGE | ≤ 0.25
246 | VSYR | ≤ 0.25
247 | SKLT | 4.23
248 | GFLH | ≤ 0.25
249 | GAVH | ≤ 0.25
250 | RALV | ≤ 0.25
251 | NFQN | ≤ 0.25
252 | PRNR | ≤ 0.25
253 | SMNG | ≤ 0.25
254 | ILAS | ≤ 0.25
255 | RDLM | ≤ 0.25
256 | NEIL | ≤ 0.25
257 | INYD | ≤ 0.25
258 | DVYH | ≤ 0.25
259 | RVNL | ≤ 0.25
260 | WAYM | ≤ 0.25
261 | TREM | ≤ 0.25
262 | WWSG | ≤ 0.25
263 | NEVP | ≤ 0.25
264 | QCHN | ≤ 0.25

Row | Variant | enrichment ratio
265 | FLVW | ≤ 0.25
266 | MSQH | ≤ 0.25
267 | TVCS | 11.4
268 | ELNV | ≤ 0.25
269 | DQCM | ≤ 0.25
270 | WHRN | ≤ 0.25
271 | RCYY | ≤ 0.25
272 | YPMV | ≤ 0.25
273 | RWAF | ≤ 0.25
274 | PCAE | ≤ 0.25
275 | PMFL | ≤ 0.25
276 | TPPP | ≤ 0.25
277 | IMSD | ≤ 0.25
278 | LNGQ | ≤ 0.25
279 | VRRQ | ≤ 0.25
280 | HNGM | 3.65
281 | LWIV | ≤ 0.25
282 | WTIP | ≤ 0.25
283 | GNWL | ≤ 0.25
284 | WDWM | ≤ 0.25
285 | PPFR | ≤ 0.25
286 | SNHD | ≤ 0.25
287 | FRDK | ≤ 0.25
288 | LMHD | ≤ 0.25

Row | Variant | enrichment ratio
289 | APMT | ≤ 0.25
290 | YRSC | ≤ 0.25
291 | SLFP | ≤ 0.25
292 | EKNI | ≤ 0.25
293 | QINH | 1.69
294 | HWWV | ≤ 0.25
295 | PGNA | ≤ 0.25
296 | RGVT | ≤ 0.25
297 | TYDT | ≤ 0.25
298 | KVLW | ≤ 0.25
299 | VWRF | ≤ 0.25
300 | QHFY | ≤ 0.25
301 | WYAE | ≤ 0.25
302 | DRNF | ≤ 0.25
303 | RMMV | ≤ 0.25
304 | PLGH | ≤ 0.25
305 | LSIV | ≤ 0.25
306 | LQAD | ≤ 0.25
